Enrichment ratio data for 153 variants are collected here from a collection of fitness landscapes (doi:10.1126/science.1257360).

This is one part of the list.

To fix the notation:
B1: PhoQ; a variant is named by its letters at X, in order, P23837 (parent)
chain: MKKLLRLFFPLSLRVRFLLATAAVVLVLSLAYGMVALIGYSVSFDKTTFRLLRGESNLFYTLAKWENNKLHVELPENIDKQSPTMTLIYDENGQLLWAQRDVPWLMKMIQPDWLKSNGFHEIEADVNDTSLLLSGDHSIQQQLQEVREDDDDAEMTHSVAVNVYPATSRMPKLTIVVVDTIPVELKSSYMVWSWFIYVLSANLLLVIPLLWVAAWWSLRPIEALAKEVRELEEHNRELLNPATTRELTSLVRNLNRLLKSERERYDKYRTTLTDLTHSLKTPLXXLQXXLRSLRSEKMSVSDAEPVMLEQISRISQQIGYYLHRASMRGGTLLSRELHPVAPLLDNLTSALNKVYQRKGVNISLDISPEISFVGEQNDFVEVMGNVLDNACKYCLEFVEISARQTDEHLYIVVEDDGPGIPLSKREVIFDRGQRVDTLRPGQGVGLAVAREITEQYEGKIVAGESMLGGARMEVIFGRQHSAPKDE

In the experiment the parent is B1. Briefly: enrichment ratio after two sorts for PhoP signalling (ratio (wild type AVST 3.29)); higher = more functional. Conditions: with PhoP (E. coli).
On to ENVD, for which the enrichment ratio was not above 0.25. Regarding VWAA, the enrichment ratio is not above 0.25. Take ENTW: the enrichment ratio is not above 0.25. Then RAIV, with not above 0.25; and QNNG, with not above 0.25; and QTIW, with not above 0.25. As to KIGW, the enrichment ratio was not above 0.25. In the case of YDAD it was not above 0.25; in that of PYGN, not above 0.25; in that of LWIN, not above 0.25.

Regarding PRIQ, the enrichment ratio is not above 0.25. In the case of VVFQ it was not above 0.25; in that of IAGM, not above 0.25; in that of EFDY, not above 0.25. With LDSF, the enrichment ratio was not above 0.25. On to MYNL, for which the enrichment ratio is not above 0.25. Take ATYP: the enrichment ratio was not above 0.25. In the case of PLHA it was not above 0.25; in that of HDYH, not above 0.25; in that of MCFC, not above 0.25. For KPGS, the enrichment ratio is not above 0.25.

For the variant WVHP, the enrichment ratio is not above 0.25. In the case of WWVL it was not above 0.25; in that of VRTN, not above 0.25; in that of SFIE, not above 0.25.

Regarding YFGR, the enrichment ratio was not above 0.25. For the variant HKME, the enrichment ratio was not above 0.25. Then IIWR, with not above 0.25; and YRTK, with not above 0.25. On to FANN, for which the enrichment ratio is not above 0.25.

Turning to MGAH, the enrichment ratio was 4.56. In the case of VRWG it was not above 0.25; in that of SMEK, not above 0.25. Then YWAM, with not above 0.25; and ACVR, with 2. Consider MSKD, for which the enrichment ratio was not above 0.25. On to HVCD, for which the enrichment ratio was not above 0.25. In the case of AHGQ it was not above 0.25; in that of FAWQ, not above 0.25. Regarding YTEW, the enrichment ratio was not above 0.25. Take SRDD: the enrichment ratio is not above 0.25. In the case of WTYD it was not above 0.25.

Take EKWS: the enrichment ratio is not above 0.25. Take DSNW: the enrichment ratio is not above 0.25. Then QEGS, with 10.4; and LDQG, with not above 0.25; and FQYY, with not above 0.25. Turning to MMRS, the enrichment ratio is not above 0.25.

Regarding HEKS, the enrichment ratio was not above 0.25. As to DNIK, the enrichment ratio was not above 0.25. In the case of ITYW it was not above 0.25; in that of WITR, not above 0.25; in that of WKFP, not above 0.25.

Turning to IVMI, the enrichment ratio is not above 0.25. Take IREI: the enrichment ratio was not above 0.25. For the variant MTQL, the enrichment ratio is not above 0.25. Take YHFS: the enrichment ratio is not above 0.25. Then LWFT, with not above 0.25; and VSVS, with not above 0.25; and AQHR, with not above 0.25. Consider RRVR, for which the enrichment ratio is not above 0.25. On to FWKQ, for which the enrichment ratio was not above 0.25. In the case of MLMH it was not above 0.25. In the case of EFDR it was not above 0.25; in that of WRWT, not above 0.25.

Consider TSQY, for which the enrichment ratio was 13.5. Then NGLP, with not above 0.25; and DCHM, with not above 0.25. For DMEC, the enrichment ratio was not above 0.25. In the case of KSVW it was not above 0.25; in that of PQNI, not above 0.25; in that of AKIM, 4.82. RPNF: the enrichment ratio was not above 0.25.

As to ETTY, the enrichment ratio is not above 0.25. In the case of DCEP it was not above 0.25; in that of FEGW, not above 0.25; in that of GLNG, not above 0.25. As for HKGH, the enrichment ratio was not above 0.25. In the case of VSSD it was not above 0.25; in that of WWMP, not above 0.25; in that of AWVL, 0.631.

In the case of MPVH, the enrichment ratio is not above 0.25.

On to PPCM, for which the enrichment ratio is not above 0.25. On to QSRN, for which the enrichment ratio was not above 0.25. In the case of DLKE it was not above 0.25; in that of DMSL, not above 0.25. In the case of ECLC it was not above 0.25; in that of VCDA, not above 0.25.

Take QSMP: the enrichment ratio was not above 0.25.

Take EQMM: the enrichment ratio was not above 0.25. On to FRQC, for which the enrichment ratio is not above 0.25. Then KVAN, with not above 0.25. In the case of VGYW it was not above 0.25; in that of YRVG, not above 0.25. As for FGFY, the enrichment ratio is not above 0.25. As to LPQI, the enrichment ratio is not above 0.25. Then YYRA, with not above 0.25. In the case of QVVA it was not above 0.25; in that of AGWM, not above 0.25. Then YVCC, with 0.396; and FTHG, with not above 0.25; and GDEV, with not above 0.25. As for PPEW, the enrichment ratio was not above 0.25.

For the variant DIFR, the enrichment ratio was not above 0.25. Then ALER, with not above 0.25; and WKAG, with not above 0.25; and MENH, with not above 0.25. In the case of AVID it was not above 0.25; in that of PMES, not above 0.25; in that of SINF, 9.63. Then PKNF, with not above 0.25; and TYGD, with not above 0.25. For the variant SKMC, the enrichment ratio stood at 5.31. With GLMQ, the enrichment ratio is not above 0.25.

With IGWR, the enrichment ratio is not above 0.25. In the case of IGMP it was not above 0.25; in that of PEWR, not above 0.25; in that of GRAM, not above 0.25.

For LCTQ, the enrichment ratio was not above 0.25.

As to YGML, the enrichment ratio amounted to 6.54. As for LCEY, the enrichment ratio is not above 0.25. In the case of QQWN it was 13.8. Then IKWL, with not above 0.25. For PMGP, the enrichment ratio was not above 0.25. In the case of TCQL it was 13.2. Then RLGP, with not above 0.25. In the case of FNTE it was not above 0.25; in that of FHEM, not above 0.25; in that of TTEC, not above 0.25. LCKA: the enrichment ratio is not above 0.25.

Take SDKE: the enrichment ratio was not above 0.25. As for HMRV, the enrichment ratio was not above 0.25.

In the case of QRIS, the enrichment ratio is not above 0.25. Then WKTF, with not above 0.25; and ITIP, with not above 0.25; and HVAK, with not above 0.25. In the case of RDMC it was not above 0.25; in that of QTTW, not above 0.25; in that of AWTV, not above 0.25. For the variant EDHD, the enrichment ratio was not above 0.25. In the case of MSFF, the enrichment ratio was found to be 8.62.

Take FYKD: the enrichment ratio was not above 0.25. In the case of LPLY, the enrichment ratio is not above 0.25.

For the variant ISWN, the enrichment ratio was not above 0.25. Regarding GHGN, the enrichment ratio is not above 0.25. With HHLP, the enrichment ratio was not above 0.25.

As for IQLR, the enrichment ratio is not above 0.25. KLTC: the enrichment ratio was not above 0.25. In the case of FCGH it was not above 0.25.

For the variant SGAD, the enrichment ratio came to 0.436.

Consider AMHF, for which the enrichment ratio stood at 4.42. Then PCDI, with not above 0.25; and KYER, with not above 0.25.
